Reference: the supplement of paper PMC7826260
This is one part of the list. Cleavage of a single-stranded DNA pool by Rep nickase domains was read by sequencing for 1 h at 37 °C with 3 µM enzyme; only the middle of the 90-letter strands is printed. A value is the log2 ratio of uncut reads to the pool without enzyme; the lower, the more was cut; hits are not called. Shares of all reads are compared, so uncut sequences can rise above 0 when many others are cut.

Tests used:
Assay in all cases: uncleaved DNA left, log2 of reads against the no-enzyme library (log2 ratio); higher = less cleavage (more negative = more Rep cleavage of the k-mer); sequences stand for … in CTCGTCCG…ACCGGAGA
[1] = system: T1, Rep nickase domain of Muscovy duck circovirus
T1 sequence (protein, residues 1-111, tag omitted): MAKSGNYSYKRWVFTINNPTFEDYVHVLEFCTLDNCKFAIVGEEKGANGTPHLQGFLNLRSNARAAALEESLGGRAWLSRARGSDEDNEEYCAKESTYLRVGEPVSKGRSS
Description: (§1)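 A pool of 90-nt single-stranded DNAs with seven random bases just before the constant AC of the nick site (name = the seven bases) was cut by 3 µM recombinant His6-SUMO-tagged Rep nickase domain (300 nM DNA, 50 mM HEPES pH 8.0, 50 mM NaCl, 1 mM MnCl2, 1 h, 37 °C, three replicates). Uncut DNA was amplified and sequenced.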

[2] = system: T2, Rep nickase domain of banana bunchy top virus
T2 sequence (protein, residues 1-94, tag omitted): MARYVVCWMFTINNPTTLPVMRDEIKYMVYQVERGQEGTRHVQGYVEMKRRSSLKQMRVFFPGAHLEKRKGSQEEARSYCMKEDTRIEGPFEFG
Description: as §1

[3] = system: T3, Rep nickase domain of cabbage leaf curl virus
T3 sequence (protein, residues 1-116, tag omitted): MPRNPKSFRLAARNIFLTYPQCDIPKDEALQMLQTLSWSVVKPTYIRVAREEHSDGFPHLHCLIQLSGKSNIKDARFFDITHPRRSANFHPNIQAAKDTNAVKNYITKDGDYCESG
Description: as §1

[4] = system: T4, Rep nickase domain of chickpea chlorotic dwarf virus
T4 sequence (protein, residues 1-124, tag omitted): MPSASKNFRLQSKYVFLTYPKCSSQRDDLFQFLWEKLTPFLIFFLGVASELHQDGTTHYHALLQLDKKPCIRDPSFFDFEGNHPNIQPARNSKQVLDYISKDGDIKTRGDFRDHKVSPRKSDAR
Description: as §1

[5] = system: T5, Rep nickase domain of faba bean necrotic yellows virus
T5 sequence (protein, residues 1-98, tag omitted): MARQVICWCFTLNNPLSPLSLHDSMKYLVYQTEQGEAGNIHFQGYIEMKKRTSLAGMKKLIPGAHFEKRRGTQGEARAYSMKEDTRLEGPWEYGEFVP
Description: as §1

[6] = system: T6, Rep nickase domain of maize striate mosaic virus
T6 sequence (protein, residues 1-117, tag omitted): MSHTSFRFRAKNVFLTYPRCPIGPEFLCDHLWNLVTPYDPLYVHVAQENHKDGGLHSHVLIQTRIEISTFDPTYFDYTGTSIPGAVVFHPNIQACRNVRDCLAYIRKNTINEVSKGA
Description: as §1

[7] = system: T7, Rep nickase domain of porcine circovirus 2
T7 sequence (protein, residues 2-116, tag omitted): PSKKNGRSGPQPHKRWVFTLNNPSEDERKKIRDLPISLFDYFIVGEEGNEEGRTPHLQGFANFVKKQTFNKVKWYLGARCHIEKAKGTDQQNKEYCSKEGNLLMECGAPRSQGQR
Description: as §1

[8] = system: T8, Rep nickase domain of tomato golden mosaic virus
T8 sequence (protein, residues 1-124, tag omitted): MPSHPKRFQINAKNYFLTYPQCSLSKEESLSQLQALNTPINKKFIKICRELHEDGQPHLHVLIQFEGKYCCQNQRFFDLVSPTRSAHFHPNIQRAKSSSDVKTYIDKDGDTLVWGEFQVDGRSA
Description: as §1

[9] = system: T9, Rep nickase domain of tomato yellow leaf curl virus
T9 sequence (protein, residues 1-136, tag omitted): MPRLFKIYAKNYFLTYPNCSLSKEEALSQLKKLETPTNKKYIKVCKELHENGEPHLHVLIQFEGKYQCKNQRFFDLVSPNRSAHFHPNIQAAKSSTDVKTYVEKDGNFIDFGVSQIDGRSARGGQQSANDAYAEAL
Description: as §1

[10] = system: T10, Rep nickase domain of wheat dwarf virus
T10 sequence (protein, residues 1-137, tag omitted): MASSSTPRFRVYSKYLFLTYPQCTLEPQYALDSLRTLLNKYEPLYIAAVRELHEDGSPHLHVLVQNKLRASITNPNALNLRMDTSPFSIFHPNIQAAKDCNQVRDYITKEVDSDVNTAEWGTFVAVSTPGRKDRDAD
Description: as §1

Sequence	uncleaved DNA left (log2) [1]	uncleaved DNA left (log2) [2]	uncleaved DNA left (log2) [3]	uncleaved DNA left (log2) [4]	uncleaved DNA left (log2) [5]	uncleaved DNA left (log2) [6]	uncleaved DNA left (log2) [7]	uncleaved DNA left (log2) [8]	uncleaved DNA left (log2) [9]	uncleaved DNA left (log2) [10]
CACCTCT	0.00707	-0.00105	-0.465	-2.54	0.0116	-0.586	-0.67	0.0255	0.00533	-0.142
CTCGGTG	-0.0775	-0.0813	-0.578	-0.645	0.0231	-0.781	0.118	-0.0662	-0.0675	-0.263
CGACAGA	0.0709	0.0531	0.075	0.701	-0.0602	1.35	0.142	0.129	-0.0251	0.226
TATACAA	0.075	0.0179	0.084	-0.671	0.0635	-0.148	0.115	0.126	0.0805	0.0948
GTCGGTC	-0.00518	0.0213	0.623	1.52	-0.014	1.85	0.0333	0.167	-0.0476	-0.0533
AATCAAT	0.0724	0.172	0.331	0.135	0.0084	0.593	-1.67	0.0582	0.108	0.0687
TGACTAG	-0.0619	-0.0475	-0.168	0.21	-0.0119	-0.1	0.14	-0.0932	0.0336	-0.0656
TCCGAAA	0.0518	-0.143	0.132	0.425	0.0833	0.145	0.0977	0.0443	-0.0911	-0.0135
GCCGCCA	-0.139	-0.0116	0.0331	-0.113	-0.081	-0.0117	0.0714	0.112	-0.0697	-0.113
CGTCGAC	0.0225	-0.089	0.0411	0.267	-0.0553	-0.143	0.075	-0.0597	-0.0251	-0.0598
GGAAATC	0.045	0.241	0.889	1.82	0.0577	2.1	0.235	-0.0227	0.137	0.181
CGAAGGA	0.0194	0.0113	0.256	0.806	0.0339	0.66	0.117	-0.00505	-0.0472	0.132
TACTTCC	-0.299	-0.0249	-0.0831	-1.38	0.0573	-0.497	-1.36	-0.161	-0.0219	0.0434
CGTTCCC	-0.0853	-0.0445	0.0827	0.279	-0.185	-0.00543	-0.162	-0.0646	0.0263	-0.00607
GTACGGA	0.112	0.0512	0.203	0.717	0.067	0.371	0.204	0.131	0.0747	0.109
TGTAAAC	-0.0224	0.121	0.439	0.675	-0.116	1.32	0.064	0.0352	0.0166	0.102

Sequence	uncleaved DNA left (log2) [1]	uncleaved DNA left (log2) [2]	uncleaved DNA left (log2) [3]	uncleaved DNA left (log2) [4]	uncleaved DNA left (log2) [5]	uncleaved DNA left (log2) [6]	uncleaved DNA left (log2) [7]	uncleaved DNA left (log2) [8]	uncleaved DNA left (log2) [9]	uncleaved DNA left (log2) [10]
CCTTGAG	0.0665	0.0094	-0.657	0.273	0.141	-0.614	0.224	-0.0464	0.248	0.129
CTTTCGC	-0.00716	-0.134	-0.695	-0.865	-0.000339	-1.26	0.0611	-0.213	-0.121	-0.202
CTGAAAG	0.0575	0.0339	-0.742	-0.36	0.0549	-0.934	0.0373	0.0787	0.081	-0.0586
ACATTTA	0.000434	-0.093	-0.256	-1.66	-0.0159	-0.704	-0.0305	0.0602	-0.226	-0.075
TCGACAC	-0.0336	-0.027	0.155	0.417	-0.0152	0.42	0.0351	-0.0384	0.0604	0.0554
ATACGTG	-0.0245	-0.0153	-0.703	-0.809	0.0134	-1.16	0.188	0.0502	0.00351	-0.119
ACAGTTT	-0.154	-0.000194	-0.218	-0.884	-0.00667	-0.232	-0.0289	-0.0043	-0.155	-0.18
AAGAGAC	0.0133	-0.0254	0.346	0.915	0.00877	0.734	0.148	0.0884	-0.0786	0.0921
TGTCGAA	0.0707	-0.0107	0.0254	-0.383	0.02	-0.676	-0.189	-0.0736	-0.0117	-0.109
ACAGAGA	0.0464	-0.148	0.0517	0.478	0.0918	-0.731	0.0967	0.142	-0.0317	-0.11
TTCTATG	-0.133	-0.141	-0.489	-0.608	0.0389	-1.1	-0.0599	-0.0119	-0.0418	-0.0643
GGTAAGT	0.0318	0.16	0.708	1.55	0.126	1.95	0.229	0.0598	0.181	0.161
AACTCTT	-3.13	-3.06	-0.979	-3.02	-0.316	-0.482	-3.56	-0.151	-0.117	-0.213
TAGGTCC	0.0792	0.114	0.0499	0.316	-0.0187	0.627	0.0502	0.0845	0.152	0.122
CTTGTTA	-0.194	-0.0224	-0.0842	-1.14	-0.0539	-0.608	-0.304	-0.135	-0.211	0.0485
